Reference: article PMC3791423, “A Key Hydrophobic Patch Identified in an AAA^+ Protein Essential for Its In Trans Inhibitory Regulation” (Journal of Molecular Biology, 2013)

Target: the molecule itself
Assay: SEC; Yarra Sec-S3000 column, 50 μM injection concentration (20 μM also run), no nucleotide, no reducing agent, 4 °C (legend; column oven 8 °C in the methods), 20 mM Tris–HCl pH 8.0, 50 mM NaCl, 15 mM MgCl2; apparent oligomers

Row | Protein | stoichiometry N
1 | PspF_([…]) F60C (domain or fragment, E. coli PspF, […], site-directed mutant of pPB1) not shown | > 20 mer
2 | PspF_([…]) S54C (domain or fragment, E. coli PspF, […], site-directed mutant of pPB1) not shown | > 20 mer
3 | PspF_([…]) S62C (domain or fragment, E. coli PspF, […], site-directed mutant of pPB1) not shown | > 15 mer
4 | PspF_([…]) L52C (domain or fragment, E. coli PspF, […], site-directed mutant of pPB1) not shown | 6
5 | PspF_([…]) I61C (domain or fragment, E. coli PspF, […], site-directed mutant of pPB1) not shown | > 20 mer
6 | PspF_([…]) R55C (domain or fragment, E. coli PspF, […], site-directed mutant of pPB1) not shown | 2
7 | PspF_([…]) H50C (domain or fragment, E. coli PspF, […], site-directed mutant of pPB1) not shown | > 20 mer
8 | PspF_([…]) Q57C (domain or fragment, E. coli PspF, […], site-directed mutant of pPB1) not shown | > 20 mer
9 | PspF_([…]) S53C (domain or fragment, E. coli PspF, […], site-directed mutant of pPB1) not shown | > 20 mer
10 | PspF_([…]) Y51C (domain or fragment, E. coli PspF, […], site-directed mutant of pPB1) not shown | > 15 mer
11 | PspF_([…]) W56C (domain or fragment, E. coli PspF, […], site-directed mutant of pPB1) not shown | 6
12 | PspF_([…]) G58C (domain or fragment, E. coli PspF, […], site-directed mutant of pPB1) not shown | 6
13 | PspF_([…]) P59C (domain or fragment, E. coli PspF, […], site-directed mutant of pPB1) not shown | > 20 mer
